Test results published in PubChem BioAssay AID1745853 (National Center for Advancing Translational Sciences (NCATS), 2022).
Some of the results follow. These are further read-outs of the screen, such as a control signal, another cell line or another target. No call is given for them.

Key:
Assay in all cases: Primary Screen for Target Class Profiling of Small Molecule Inhibitors of Methyltransferases
[1] = target: Glycine N-methyltransferase (Homo sapiens) (UniProt Q14749); details: purified enzyme, MTase-Glo SAH luminescence; measured here: GNMT inhibition; at 40 µM; stronger effect = lower value
Outline: (§1)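 Each enzyme was reacted with SAM and its substrate, with compounds tested once at 40 uM; SAH formed was read by MTase-Glo luminescence.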

[2] = target: Guanidinoacetate N-methyltransferase (Homo sapiens) (UniProt Q14353); details: purified enzyme, MTase-Glo SAH luminescence; measured here: GAMT inhibition; at 40 µM; stronger effect = lower value
Outline: as §1

[3] = target: Histamine N-methyltransferase (Homo sapiens) (UniProt P50135); details: purified enzyme, MTase-Glo SAH luminescence; measured here: HNMT inhibition; at 40 µM; stronger effect = lower value
Outline: as §1

[4] = target: Nicotinamide N-methyltransferase (Homo sapiens) (UniProt P40261); details: purified enzyme, MTase-Glo SAH luminescence; measured here: NNMT inhibition; at 40 µM; stronger effect = lower value
Outline: as §1

[5] = target: Phenylethanolamine N-methyltransferase (Homo sapiens) (UniProt P11086); details: purified enzyme, MTase-Glo SAH luminescence; measured here: PNMT inhibition; at 40 µM; stronger effect = lower value
Outline: as §1
On the % scale 0 is the no-effect control and ±100 the full control effect.

Row | Compound | activity change, negative = inhibition [1] [%] | activity change, negative = inhibition [2] [%] | activity change, negative = inhibition [3] [%] | activity change, negative = inhibition [4] [%] | activity change, negative = inhibition [5] [%]
1 | CCC(C)NC(=O)c1ccc2c(=O)n(C(C)C)c3nn(C)c(=O)n3c2c1 (configuration not stated) | 5.77 | 0 | 7.38 | 0.54 | 2.98
2 | Cc1ccc(NC(=O)CSc2nnc3n(CC(C)C)c(=O)c4ccccc4n23)cc1C | -4.01 | -10.9 | 7.45 | -7.7 | -3.72
3 | CCCn1c(C)cnc1CC1CCCN(S(=O)(=O)c2cc(OC)ccc2OC)C1 (configuration not stated) | -6.08 | 0 | -1.28 | -9.4 | -1.65
4 | Cc1cc(=O)n(CC(=O)NCc2ccccc2Cl)c(N(C)Cc2ccccc2)n1 | -6.55 | -5.96 | -1.91 | -8.86 | -3.17
5 | CCOC(=O)c1cc2n(n1)CC(C)(C(=O)NC1CCCC1)N(Cc1ccc(OCC)cc1)C2=O (configuration not stated) | -0.738 | 0 | 2.94 | 3.47 | -1.61
6 | CN1C[C@@H](NC(=O)CC(C)(C)CC(=O)O)C[C@H]1c1nc(-c2ccc3c(c2)OCO3)no1 | -1.21 | -5 | -2.71 | -6.59 | -0.058
7 | COc1ccc(CCNC(=O)Cn2ccc3cc(S(=O)(=O)N4CCCC4)ccc32)cc1OC | -3.74 | 0 | -1.4 | -4.26 | -1.1
8 | CC(C)CCN1C(=O)c2cc3occc3n2CC1(C)C(=O)NC1CCC(C)CC1 (configuration not stated) | -2.43 | 3.46 | 1.44 | 1.74 | -4.46
9 | CCCCc1nc(Cl)c(CO)n1Cc1ccc(-c2ccccc2-c2nnn[nH]2)cc1 | -6.76 |  | 10.3 |  | 
10 | CC(=O)Nc1c2n(c3ccccc13)CC(C)(C(=O)NC1CCCCC1)N(Cc1ccccc1)C2=O (configuration not stated) | -0.691 | 2 | 3.67 | 4.54 | 1.75
11 | Cc1ccc(NS(=O)(=O)c2cc3c(cc2C)n(C)c(=O)n3C)cc1C | 2.49 | 0 | -1.8 | -3.84 | 2.6
12 | CCCN(CCC)C(=O)C(CCC(=O)OCCCN1CCN(CCOC(=O)Cc2c(C)n(C(=O)c3ccc(Cl)cc3)c3ccc(OC)cc23)CC1)NC(=O)c1ccccc1 (configuration not stated) | 0.478 | 1.06 | 11.8 | -13.5 | 6.49
13 | O=C1N(Cc2ccc(F)c(F)c2)CCCC12CCN(c1nc3ccccc3o1)C2 (configuration not stated) | -6.91 | -10.9 | -15.9 | -12.2 | -8.58
14 | COc1ccc(-c2nc3ccc(C4=NNC(=O)CC4C)cc3[nH]2)cc1 (configuration not stated) | -45.8 | -9.68 | -12.4 | -32.4 | -14.8
15 | COc1ccccc1-c1ccc(-c2cn(C(=O)N3CCCCC3Cc3ccccc3)nn2)cc1 (configuration not stated) | 3.91 | -20.3 | 11.9 | -21.8 | -0.52
16 | COc1ccc(CNC(=O)[C@@H]2CCC[C@@H](NC(=O)C3CC3)CN(C)C(=O)C2)cc1 | -5.83 | -4.75 | -1.93 | -9.49 | -4.44
17 | Cc1nc2n(c(=O)c1CCN1CCC(c3noc4cc(F)ccc34)CC1)CCCC2O (configuration not stated) | 5.36 | 9.44 | 9.19 | -15.5 | -4.28
18 | C=CCn1c(=O)c2cnc(Nc3ccc(N4CCN(C)CC4)cc3)nc2n1-c1cccc(C(C)(C)O)n1 | -22.3 | -11.3 | -63 | -24.1 | -16.3
19 | Cc1ccc(CNS(=O)(=O)c2ccc3[nH]c(=O)[nH]c3c2)cc1 | 1.15 | 3.76 | -3.51 | -7.78 | -8.31

Row | Compound | activity change, negative = inhibition [1] [%] | activity change, negative = inhibition [2] [%] | activity change, negative = inhibition [3] [%] | activity change, negative = inhibition [4] [%] | activity change, negative = inhibition [5] [%]
20 | Cn1cnc2c(=O)oc3ccc(S(=O)(=O)NCCc4ccc(Cl)cc4)cc3c21 | -2.73 | 3.89 | -5.5 | -4.79 | -4.63
21 | COc1cccc([C@@H]2CN(C(=O)c3cc(C)oc3C)C[C@H]2C(=O)O)c1OC | -5.28 | -4.4 | -2.28 | -6.74 | -5.46
22 | Oc1ccc(-c2cnc3ccc(NCc4ccco4)nn23)cc1 | -44.3 | -5.62 | -31.3 | -26.1 | -7.15
23 | COC(=O)c1ncn2c1C(=O)N(Cc1cccc(C)c1)C(C)(C(=O)NC1CCCCCC1)C2 (configuration not stated) | -10.4 | 2.66 | 0.588 | 2.63 | -1.51
24 | O=S(=O)(c1cccc(F)c1)N1CC[C@@H]2COCCN(Cc3ccccc3)[C@@H]2C1 | -3.88 | 3 | -2.76 | -5.26 | 7.97
25 | C=C1C(=O)OC[C@@H]1C/C=C(\C)CC1CC(C)C(=O)O1 (some centres not stated) | -4.02 | -4.99 | 1.98 | -15.6 | 1.69
26 | COc1ccc(-n2nc3n(c2=O)CCN(C(=O)c2ccccc2F)C3)cc1 | -13.5 | -2.04 | -5.59 | -11.3 | 5.04
27 | CC1=CC(=O)CC(C)(C)C1CCC(C)O[C@@H]1O[C@H](CO[C@@H]2OC[C@@H](O)[C@H](O)[C@H]2O)[C@@H](O)[C@H](O)[C@H]1O (some centres not stated) | 0 | -5.08 | 0.04 | -17.3 | 2.08
28 | CCCCN1C(=O)c2cc(C(=O)Nc3ccccc3OC)nn2CC1(C)C(=O)NC1CCCC1 (configuration not stated) | 1.01 | 2.67 | -3.47 | -3.87 | -1.4
29 | O=C(Nc1ccc(F)c(Cl)c1)N1CCn2cccc2C1Cc1ccccc1 (configuration not stated) | -13.3 | 3.14 | -5.96 | -10.4 | -14
30 | CC(=O)OCC1=C(C(=O)O)N2C(=O)[C@@H](NC(=O)Cc3cccs3)[C@H]2SC1 | -8.56 | 6.38 | 3.34 | -26.5 | 5.23
31 | O=C(NCc1nnc2cc(-c3nc(C4CC4)no3)ccn12)C1(c2ccccc2)CC1 | 0.622 | -3.07 | 0.716 | -2.89 | 2.08
32 | COc1ccc(N2C(=O)c3cc(-c4ccccc4)nn3CC2(C)C(=O)NCc2ccccc2OC)cc1 (configuration not stated) | -2.72 | -2.91 | -3.17 | -5.01 | -3.52
33 | Cc1ccc(C)c(N2CCN(S(=O)(=O)c3cc4c(cc3Cl)n(C)c(=O)n4C)CC2)c1 | 3.82 | 3.98 | 0.115 | -0.059 | 0.834
34 | O=C1[C@@H]2[C@H]3CC[C@H](C3)[C@@H]2C(=O)N1CCCCN1CCN(c2ncccn2)CC1 | 4.12 | 3.97 | 12.1 | -6.82 | 4.68
35 | CCN1C(=O)c2cc(C(=O)NCCCc3ccccc3)nn2CC1(C)C(=O)NC1CCCC1 (configuration not stated) | 2.68 | 4.66 | -5.37 | -0.173 | 1.68
36 | O=C1N[C@H](CC(=O)N2CCN(Cc3ccccc3Cl)CC2)C(=O)Nc2ccccc21 | -2.28 | 4.98 | 0.295 | -3.97 | -11.9
37 | CCN(Cc1noc(C)n1)C(=O)c1coc(COc2ccc3c(c2)OCO3)n1 | -2.71 | -2.04 | -0.51 | -3.09 | -3.86
38 | c1cn2cc(-c3ccc4cn[nH]c4c3)nc(Nc3ccc(N4CCOCC4)cc3)c2n1 | -20.9 | -48.5 | -11.7 | -56.1 | -49.6
